Data published in patent publication US10556926B2, “Synthetic artificial peptides with antimicrobial effect” (priority 2014, dated 2020).
At least one peptide structure holds a part that was inferred or is arguable (an end, a ring closure or a residue). No end group written: not given here.

What was measured:
E. coli ML-35p [1] = assay: Kinetics of permeabilization of the outer bacteria membrane (nitrocefin); format: cell-based, Escherichia coli
Description: (§1) The ability of the antimicrobial peptides for the respective permeabilization of the outer and inner bacteria membrane was tested by way of example on E. coli ML-35p (made available by Dr. R. E. Lehrer, Center for Health Sciences, Los Angeles, Calif., USA). The peptides were incubated in serial dilution with E. coli ML-35p and the time-dependent release of cell-internal components was measured in a slightly modified protocol according to Ericsson et al. (2002). For this purpose, the bacteria were cultured in Luria-Bertani (LB) medium with 100 μg/ml ampicillin (Fluka, Taufkirchen, Germany) until reaching an optical density of 0.4 at 600 nm wavelength. Then, the cells were washed three times by centrifugation at 4000 g for 1 min and subsequent up-take in 10 mM HEPES buffer pH 7.2. Finally, the cells were diluted to an optical density of 0.3 at 600 nm wavelength. To measure the permeabilization of the outer membrane, nitrocefin (Merck, Darmstadt, Germany) was diluted in HEPES buffer to a concentration of 60 μg/ml. The antimicrobial peptides were diluted in HEPES buffer to an end concentration of 12 μM, 24 μM, 48 μM and 96 μM end concentration. In the next step, 50 μl of nitrocefin were admixed with 50 μl of antimicrobial peptide and 50 μl of bacteria suspension such that an end concentration of 20 μg/ml of nitrocefin, 4 μM to 32 μM of antimicrobial peptide and bacteria with an optical density of 0.1 to 600 nm were present. The samples were mixed and the absorption at 500 nm wavelength was measured directly over a period of at least 90 min at 37° C. with regular shaking in a FLUOstar omega Microplate Reader (BMG Labtech, Ortenberg, Germany). The investigation of the permeabilization of the inner membrane was carried out in the same way except that instead of the nitrocefin accordingly 0-nitrophenyl-beta-D-galactoside (ONPG, Sigma-Aldrich) in an end concentration of 100 μg/ml was used and the absorption change was determined at a wavelength of 420 nm. The control used was samples without antimicrobial peptide, the positive control used for the membrane permeabilization was polymyxin B (Sigma-Aldrich) in an end concentration of 5 μM. For the data evaluation, firstly the measurement values of the corresponding negative controls were deducted from the measurement values of the samples, and the difference was then divided by the corresponding measurement values of the permeabilization control. Then, a graphical evaluation was carried out, the calculated values being plotted against the peptide concentration and being fitted with the help of the Origin Pro 8.1 G Software (OriginLab) according to a sigmoidal model.
(§2) As comparison parameter between the peptides, the times were ascertained from this at which 50% of the final signal level was reached. For this purpose, the equation with the percentage membrane permeabilization y, the time x in minutes, the lower plateau A1, the upper plateau A2, the point of inflection Log X0 and the Hill incline p
(§3) [formula] was used. The calculation of the parameters A1, A2, Log X0 and p was performed by the program by reference to the compensating curve. Further resolution of equation 5.1 for the case y=50 then produced for x the desired time at which the half-maximum signal level was reached.

E. coli ML-35p [2] = assay: Kinetics of permeabilization of the inner bacteria membrane (ONPG); format: cell-based, Escherichia coli
Description: as §1, with “model. As representative examples, FIGS. 4 and 5 show the graphical evaluation for the kinetic investigation of the permeabilization of the outer E. coli bacteria membrane for the peptides N4 (FIG. 4) and O1 (FIG. 5).” for “model.”
as §2, §3

Substance	Outer membrane, time to 50% of final signal (E. coli ML-35p [1]; 4 μM peptide) [min]	Outer membrane, time to 50% of final signal (E. coli ML-35p [1]; 8 μM peptide) [min]	Outer membrane, time to 50% of final signal (E. coli ML-35p [1]; 16 μM peptide) [min]	Outer membrane, time to 50% of final signal (E. coli ML-35p [1]; 32 μM peptide) [min]	Inner membrane, time to 50% of final signal (E. coli ML-35p [2]; 4 μM peptide) [min]	Inner membrane, time to 50% of final signal (E. coli ML-35p [2]; 8 μM peptide) [min]	Inner membrane, time to 50% of final signal (E. coli ML-35p [2]; 16 μM peptide) [min]	Inner membrane, time to 50% of final signal (E. coli ML-35p [2]; 32 μM peptide) [min]
KRKILILIKRKRK [C1]	38	30	23	13	>90	>90	62	45
KRKILILILIKRK [H1]	26	20	19	17	>90	37	35	33
KRKILILILIL [M2]	>90	>90	23	26	>90	>90	>90	>90
KRKKRK [H6, KRKKRK]	>90	>90	>90	>90	>90	>90	>90	>90
KRKLIKRK [H4]	>90	>90	>90	>90	>90	>90	>90	>90
KRKLILIKRK [H2]	>90	>90	>90	>90	>90	>90	>90	>90
KRKLILKRILIKRK [A2]	>90	>90	21	16	>90	>90	60	80
KRKSGSGSKRK [M6]	>90	>90	>90	>90	>90	>90	>90	>90
LIKRK [N8, LIKRK]	>90	>90	>90	>90	>90	>90	>90	>90
LILIKRK [N6, LILIKRK]	>90	>90	>90	>90	>90	>90	>90	>90
LILKRKRKRKRILI [A5]	>90	>90	>90	>90	>90	>90	>90	>90
LKLLKKLLKKLLKLL [KL-helix]	2	<1	<1	<1	14	11	9	6
RKILILIKRK [N3]	41	40	21	13	>90	>90	>90	56
RKLILKRKRILIKR [A3]	>90	>90	>90	17	>90	>90	>90	72
RKRKILILIKRK [N2]	20	13	12	12	>90	>90	40	32
